From publication PMC6801822, “The Bactericidal Activity of Temporin Analogues Against Methicillin Resistant Staphylococcus aureus” (International Journal of Molecular Sciences, 2019) come the findings set out here.

Each structure is given as a SMILES string. ≈ marks a conversion by molar mass, not a printed value. Non-standard residues stand in square brackets, D forms with d. Residues, ends and D or L forms follow the SMILES beside them. AEEA = NCCOCCOCC(=O)O

This test has as its system MRSA clinical isolate 52B. Kind of test: microbe, parasite or virus in culture. The conditions noted are these: 24 h. As to the method: Antimicrobial activity of peptides was analyzed through determination of MIC parameter according to the standard microdilution technique performed on 96-well plates. Mueller-Hinton broth (MHB, Sigma Aldrich, St. Louis, MO, USA) was used as the working medium for all bacterial strains. Briefly, inoculum was prepared from freshly grown cultures of bacteria being at their exponential phase of growth. Each well of 96-well plates containing 100 µL of serially diluted peptides in PBS at desired concentration was inoculated with 100 µL of 10^5 CFU/mL of bacterial suspension. Then plates were incubated overnight 37 °C and absorbance was read at 600 nm after 24 h. Wells without peptide were treated as the positive control, while uninoculated MHB was defined as the negative control. All measurements were run in triplicates.

For the compound `CC(=O)NC[C@H]1CN(c2ccc(N3CCOCC3)c(F)c2)C(=O)O1` [Linezolid, linezolid], the MIC (Staphylococcus aureus) came out at 2 µg/mL (≈ 5.93 µM). `CC[C@H](C)[C@H](NC(=O)COCCOCCNC(=O)[C@H](CCCNC(=N)N)NC(=O)[C@H](CC(C)C)NC(=O)[C@H](Cc1ccccc1)NC(=O)CNC(=O)[C@@H](C)NC(=O)[C@@H](N)Cc1ccc(O)cc1)C(=O)N[C@@H](CCCCN)C(=O)N[C@@H](CCCCN)C(=O)N[C@H](C(=O)N[C@@H](CC(C)C)C(=O)N[C@@H](CO)C(=O)N[C@H](CCCCN)C(=O)N[C@H](C(=O)N[C@@H](CCCCN)C(=O)N[C@@H](CCCCN)C(=O)N[C@@H](CC(C)C)C(=O)N[C@@H](CC(C)C)C(N)=O)[C@@H](C)CC)[C@@H](C)CC` [DAL-PEG-DK5] (H-Y[dA]GFLR[AEEA]IKKILS[dK]IKKLL-NH2; N-terminus assumed) returned an MIC (MRSA clinical isolate 52B (skin), broth microdilution, MHB) of 40 µg/mL (≈ 17.6 µM). Turning to `CN[C@H](CC(C)C)C(=O)N[C@H]1C(=O)N[C@@H](CC(N)=O)C(=O)N[C@H]2C(=O)N[C@H]3C(=O)N[C@H](C(=O)N[C@H](C(=O)O)c4cc(O)cc(O)c4-c4cc3ccc4O)[C@H](O)c3ccc(c(Cl)c3)Oc3cc2cc(c3O[C@@H]2O[C@H](CO)[C@@H](O)[C@H](O)[C@H]2O[C@H]2C[C@](C)(N)[C@H](O)[C@H](C)O2)Oc2ccc(cc2Cl)[C@H]1O` [Vancomycin, vancomycin], the MIC (Staphylococcus aureus) turned out to be 0.5 µg/mL (≈ 0.345 µM).
